Reference: PubChem BioAssay AID1745853 (National Center for Advancing Translational Sciences (NCATS), 2022)
Some of the results follow. Further columns of the screen follow, without active or inactive calls.

Experiments:
Assay in all cases: Primary Screen for Target Class Profiling of Small Molecule Inhibitors of Methyltransferases
[1] = biological target: Glycine N-methyltransferase (Homo sapiens) (UniProt Q14749); conditions: purified enzyme, MTase-Glo SAH luminescence; measured here: GNMT inhibition; at 40 µM; stronger effect = lower value
In short: (§1)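 Each enzyme was assayed with SAM and its substrate. SAH formation detected by MTase-Glo luminescence; single-point 40 uM screen[…].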

[2] = biological target: Guanidinoacetate N-methyltransferase (Homo sapiens) (UniProt Q14353); conditions: purified enzyme, MTase-Glo SAH luminescence; measured here: GAMT inhibition; at 40 µM; stronger effect = lower value
In short: as §1

[3] = biological target: Histamine N-methyltransferase (Homo sapiens) (UniProt P50135); conditions: purified enzyme, MTase-Glo SAH luminescence; measured here: HNMT inhibition; at 40 µM; stronger effect = lower value
In short: as §1

[4] = biological target: Nicotinamide N-methyltransferase (Homo sapiens) (UniProt P40261); conditions: purified enzyme, MTase-Glo SAH luminescence; measured here: NNMT inhibition; at 40 µM; stronger effect = lower value
In short: as §1

[5] = biological target: Phenylethanolamine N-methyltransferase (Homo sapiens) (UniProt P11086); conditions: purified enzyme, MTase-Glo SAH luminescence; measured here: PNMT inhibition; at 40 µM; stronger effect = lower value
In short: as §1
% is set by controls: 0 for no effect and ±100 for the full control effect.

Row | Structure (SMILES) | activity change, negative = inhibition [1] | activity change, negative = inhibition [2] | activity change, negative = inhibition [3] | activity change, negative = inhibition [4] | activity change, negative = inhibition [5]
1 | Cc1ccc(CSc2nnc3n(Cc4ccccc4)c(=O)c4ccccc4n23)cc1 | 3.53% | 4.3% | 3.48% | -2.67% | 1.23%
2 | CC1CCC(NC(=O)C2(C)Cc3ccccc3C(=O)N2Cc2cccs2)CC1 (centres undefined) | -3.79% | 2.44% | -2.36% | -4.88% | -6.75%
3 | CC1CCN(S(=O)(=O)N2CCC(C(=O)N3CCc4nc5cc[nH]n5c(=O)c4C3)CC2)CC1 | -3.99% | 1.44% | -0.27% | -10.9% | -21.5%
4 | Cc1ccn(CCC(=O)NCc2cccnc2Oc2ccc(F)c(F)c2)n1 | -1.61% | -3.92% | -3.69% | -3.45% | 5.38%
5 | CC[N+](C)(C)c1cccc(O)c1 | 2.02% | 7.29% | -20.7% | -7.84% | -2.13%
6 | CC1(C)C=Cc2c(ccc3c2N=C2C(C)(C)[C@@H]4C[C@]56CCCN5C(=O)[C@@]4(C[C@]23O)NC6=O)O1 | 1.85% | 1.26% | 8.9% | -13.9% | 4.25%
7 | CC(C)CCn1c(=O)c2ccccc2n2c(SCC(=O)NCc3ccc(Cl)cc3)nnc12 | 4.51% | 0% | 6.94% | -0.608% | 5.08%
8 | CC1(C)CC[C@]2(C(=O)O)CC[C@]3(C)C(=CC[C@@H]4[C@@]5(C)C[C@@H](O)[C@H](O)C(C)(C)[C@@H]5CC[C@]43C)[C@@H]2C1 |  | 2.94% |  | -14.3% | 3.61%
9 | CC1(CO)CCCC2(C)C3COC(=O)C3=CC(O)C12 (centres undefined) | -3.59% | -4.25% | 2.76% | -14.1% | -12.9%
10 | COc1ccccc1-c1nnc2n(Cc3ccccc3)c(=O)c3ccccc3n12 | -9.3% | 2.19% | -7.35% | -7.36% | -4.77%
11 | OC[C@H](Cc1ccccc1)Nc1nc(Oc2ccc3c(c2)CCC3)nc2c1ncn2Cc1ccc(-c2ccccc2)cc1 |  | -28% |  | -57.9% | -32.7%
12 | CC1CCCCC1NC(=O)C1(C)Cn2c(nc3ccccc32)C(=O)N1CCc1ccc(Cl)cc1 (centres undefined) | -1.82% | 3.9% | 2.84% | -5.65% | -6.81%
13 | CCc1ccc(CN2C(=O)c3c(C(=O)OC)ncn3CC2(C)C(=O)NC2CCCCCC2)cc1 (centres undefined) | 0.605% | 0% | 0.073% | -1.17% | 2.23%
14 | C=CC(C)(C)c1[nH]c2ccccc2c1C[C@@H]1NC(=O)[C@H](Cc2c[nH]c3ccccc23)NC1=O | -0.476% | -3.6% | 4.53% | -15% | 1.87%
15 | COc1ccc(CNc2nc3c(-c4cccc(C)c4)nnn3c3ccccc23)cc1 | -5.52% | 0% | 1.01% | -1.04% | -4.96%
16 | CC(C)CNC(=O)c1ccc2c(=O)n(CC(C)C)c3nn(CC(=O)NCc4ccccc4)c(=O)n3c2c1 | -2.04% | 0.02% | 4.84% | -0.523% | 2.84%
17 | O=C(O)c1c[nH]c2c(ccc3ccccc32)c1=O |  | 2.81% |  | -8.25% | 5.27%
18 | O=c1n(CCN2CCCC(N[S+](=O)([O-])c3ccccc3)C2)nc2n1CCCC2 (centres undefined) | -0.128% | 1.46% | 3.8% | -4.1% | 2.1%
19 | CC(C)CCn1c(=O)c2ccccc2n2c(=O)n(CC(=O)Nc3cccc(F)c3)nc12 | 0.881% | 0% | 6.1% | -3.36% | 2.55%

Row | Structure (SMILES) | activity change, negative = inhibition [1] | activity change, negative = inhibition [2] | activity change, negative = inhibition [3] | activity change, negative = inhibition [4] | activity change, negative = inhibition [5]
20 | Cc1ccccc1N1C(=O)c2cc3occc3n2CC1(C)C(=O)NC1CCCCCCC1 (centres undefined) | 0.423% | 0% | 5.45% | 1.36% | 0.528%
21 | CCCn1c(=O)c2ccc(C(=O)NCC(C)C)cc2n2c(=O)n(CC(=O)NCc3ccccc3)nc12 | 3.97% | 0.783% | 4.64% | -1.79% | 1.31%
22 | CCOC(=O)C1CCN(S(=O)(=O)c2ccc(Cl)c(-c3nnc(-c4ccccc4)o3)c2)CC1 | 10.7% | 1.88% | 11.2% | 6.22% | 9.31%
23 | COc1ccccc1C(=O)N1CCC2(C1)NC(=O)c1ccccc1CO2 (centres undefined) | -10.7% | -9.9% | -3.31% | -13.5% | 8.97%
24 | Cc1ccc(CN2C(=O)c3cc(-c4ccco4)nn3CC2(C)C(=O)NC2CCCCCC2)cc1 (centres undefined) | 0.927% | 4.98% | 0.799% | -0.149% | -2.67%
25 | COCCN1C(=O)c2ccccc2C(C(=O)Nc2ccc3[nH]ccc3c2)C12CCCC2 (centres undefined) | -6.93% | -3.1% | -3.2% | -8.45% | -7.08%
26 | CC1CCC(NC(=O)C2(C)Cn3c(nc4ccccc43)C(=O)N2CC(C)c2ccccc2)CC1 (centres undefined) | -5.87% | -7.46% | -3.75% | -8.77% | -8.63%
27 | CC12CCC(OC3OC(CO)C(O)C(O)C3OC3OC(CO)C(O)C(O)C3O)CC1CCC1C2CCC2(C)/C(=C3/COC(=O)C3)CCC12O (centres undefined) | -3.97% | -2.58% | -0.982% | -12.2% | 1.74%
28 | O=C1CCN(C(=O)c2ccoc2)CCCC(c2nc(-c3cccnc3)no2)CCN1 (centres undefined) | -4.9% | -6.11% | -3.56% | -7.74% | -3.74%
29 | Cc1cccc(N2CCN(CC(=O)Nc3ccc4[nH]c(=O)[nH]c4c3)CC2C)c1 (centres undefined) | -8.84% | 4.28% | 0.704% | 5.5% | -8.18%
30 | CCOC(=O)c1cc2n(n1)CC(C)(C(=O)NCCOC)N(c1ccc(C)cc1C)C2=O (centres undefined) | 3.45% | 0% | 4.83% | 5.65% | 3.27%
31 | Cn1cc(C(=O)N2CCCC(c3nnnn3C)C2)cn1 (centres undefined) | -3.96% | -7.25% | -1.23% | -8.8% | -4.27%
32 | CNc1nc(Cc2ccccc2)nc2c1CCNC[C@@H]2C | 0.01% | 0.148% | -0.498% | -17.5% | -3.15%
33 | O=C(CCc1nnc2n(Cc3ccccc3)c(=O)c3ccccc3n12)N1CCN(c2ccccc2)CC1 | -10.1% | 0.003% | -4.56% | -8.96% | -4.71%
34 | Cc1nc(CC(=O)N2CCCC(c3ccc(C(=O)O)cc3)C2)cs1 (centres undefined) | -2.15% | -3.75% | 0.066% | -10.1% | 5.77%
35 | O=C1NC(=O)C(c2cnc3ccccn23)=C1c1cn2c3c(cc(F)cc13)CN(C(=O)N1CCCCC1)CC2 | -41.7% | -10.8% | -25.9% | -63% | -27.4%
36 | CCOC(=O)c1cc2n(n1)CC(C)(C(=O)NC1CCCCC1)N(c1cc(C)cc(C)c1)C2=O (centres undefined) | 5.04% | 0% | -6.31% | 9.6% | 5.41%
37 | Cc1cc(CN2CC(Oc3ccc(F)c(F)c3)C2)no1 | -4.81% | -3.36% | -2.27% | -9.95% | -8.69%
38 | O=C(CC[C@@H]1CNC(=O)[C@@H]2C[C@H](NC(=O)Nc3ccc(F)cc3F)CN12)NC1CC1 | 0.24% | 0.618% | 2.19% | -1.17% | 0.739%
